Laboratory results from US10590397B2 (priority 2017, dated 2020).

Settings: expressed in E. coli

Molecule	solubility of the protein
Os79 H122A/L123G (protein, listed as Oryza sativa) MGSMSTPAASANGGQVLLLPFPAAQGHTNPMLQFGRRLAYHGLRPTLVTTRYVLSTTPPPGDPFRVAAISDGFDDASGMAALPDPGEYLRTLEAHGARTLAELLLSEARAGRPARVLVYDPAGPWARRVARAAGVATAAFLSQPCAVDLIYGEVCARRLALPVTPTDARGLYARGVLGVELGPDDVPPFVAAPELTPAFCEQSIEQFAGLEDDDDVLVNSFSDLEPKEAAYMESTWRAKTIGPSLPSFYLDDGRLRSNTAYGFNLFRSTVPCMEWLDKQPPRSVVLVSYGTVSTFDVAKLEELGNGLCNSGKPFLWVVRSNEEHKLSVQLRKKCEKRGLIVPFCPQLEVLAHKATGCFLSHCGWNSTLEAIVNGVPLVAMPHWADQPTISKYVESLWGMGVRVQLDKSGILQREEVERCIREVMDGDRKEDYRRNATRLMKKAKESMQEGGSSDKNIAEFAAKYSN	largely insoluble
Os79 H122A/L123A (protein, listed as Oryza sativa) MGSMSTPAASANGGQVLLLPFPAAQGHTNPMLQFGRRLAYHGLRPTLVTTRYVLSTTPPPGDPFRVAAISDGFDDASGMAALPDPGEYLRTLEAHGARTLAELLLSEARAGRPARVLVYDPAAPWARRVARAAGVATAAFLSQPCAVDLIYGEVCARRLALPVTPTDARGLYARGVLGVELGPDDVPPFVAAPELTPAFCEQSIEQFAGLEDDDDVLVNSFSDLEPKEAAYMESTWRAKTIGPSLPSFYLDDGRLRSNTAYGFNLFRSTVPCMEWLDKQPPRSVVLVSYGTVSTFDVAKLEELGNGLCNSGKPFLWVVRSNEEHKLSVQLRKKCEKRGLIVPFCPQLEVLAHKATGCFLSHCGWNSTLEAIVNGVPLVAMPHWADQPTISKYVESLWGMGVRVQLDKSGILQREEVERCIREVMDGDRKEDYRRNATRLMKKAKESMQEGGSSDKNIAEFAAKYSN	improved the solubility
